From paper PMC12820563, “FoxP3 forms a head-to-head dimer in vivo and stabilizes its multimerization on adjacent microsatellites”
The other results are listed elsewhere or left out.

The sequences below were run against T1, MBP-FoxP1dN (Mus musculus, UniProt P58462 326-579) (assay: PD-seq (MBP pull-down with sequencing); 20 mM Tris-HCl pH 7.5, 100 mM NaCl, 1.5 mM MgCl2, 0.4 uM protein, 0.1 uM dsDNA library, 30 min, room temperature, amylose pull-down; high values mean tight binding). Details: protein: recombinant; tags: His6-MBP; chain copies: 2; dsDNA, one strand shown.
T1 sequence: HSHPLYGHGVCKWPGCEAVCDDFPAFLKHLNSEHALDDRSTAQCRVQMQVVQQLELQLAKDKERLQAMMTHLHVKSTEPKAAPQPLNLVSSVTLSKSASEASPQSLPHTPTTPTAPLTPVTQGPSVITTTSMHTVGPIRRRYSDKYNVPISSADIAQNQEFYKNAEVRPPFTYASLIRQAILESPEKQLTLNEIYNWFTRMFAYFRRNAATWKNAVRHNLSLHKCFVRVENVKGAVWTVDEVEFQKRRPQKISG
In short: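 Mouse FoxP3 or FoxP1 fragment lacking the N-terminus, His6-MBP-tagged and expressed in E. coli, was incubated at 0.4 µM with 0.1 µM Klenow-filled degenerate double-stranded DNA library for 30 min at room temperature in Tris pH 7.5 buffer with NaCl and MgCl2. Complexes captured on amylose resin were washed three times and their DNA sequenced on Illumina. Binding is reads-per-million enrichment of pull-down over input, replicates pooled.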

Sequence	binding signal
GATGATTGTTCTCCCAGCTGATGAATTGATACTATCGAGTAAACAAATTTTCCTAATCTTTCTGTTCAAGCGCCATCTAC	1.29 RPM ratio (pull-down/input)
GATGATTGTTCTCCCAGCTGATGAATTCACTCCCTCGAGTAAACAAATTTTCCTAATCTTTCTGTTCAAGCGCCATCTAC	0.792 RPM ratio (pull-down/input)
GATGATTGTTCTCCCAGCTGATGAATTCCAAAATTCGAGTAAACAAATTTTCCTAATCTTTCTGTTCAAGCGCCATCTAC	0.865 RPM ratio (pull-down/input)
GATGATTGTTCTCCCAGCTGATGAATTGCAGTGTTCGAGTAAACAAATTTTCCTAATCTTTCTGTTCAAGCGCCATCTAC	1.14 RPM ratio (pull-down/input)
GATGATTGTTCTCCCAGCTGATGAATTCTTACGGTCGAGTAAACAAATTTTCCTAATCTTTCTGTTCAAGCGCCATCTAC	0.866 RPM ratio (pull-down/input)
GATGATTGTTCTCCCAGCTGATGAATTCCTTTACTCGAGTAAACAAATTTTCCTAATCTTTCTGTTCAAGCGCCATCTAC	0.819 RPM ratio (pull-down/input)
GATGATTGTTCTCCCAGCTGATGAATTGTCCGGTTCGAGTAAACAAATTTTCCTAATCTTTCTGTTCAAGCGCCATCTAC	0.913 RPM ratio (pull-down/input)
GATGATTGTTCTCCCAGCTGATGAATTACTCTGATCGAGTAAACAAATTTTCCTAATCTTTCTGTTCAAGCGCCATCTAC	0.948 RPM ratio (pull-down/input)
GATGATTGTTCTCCCAGCTGATGAATTTAGTGCGTCGAGTAAACAAATTTTCCTAATCTTTCTGTTCAAGCGCCATCTAC	1.07 RPM ratio (pull-down/input)
GATGATTGTTCTCCCAGCTGATGAATTAATTCTTTCGAGTAAACAAATTTTCCTAATCTTTCTGTTCAAGCGCCATCTAC	0.927 RPM ratio (pull-down/input)
GATGATTGTTCTCCCAGCTGATGAATTCCAGAATTCGAGTAAACAAATTTTCCTAATCTTTCTGTTCAAGCGCCATCTAC	0.825 RPM ratio (pull-down/input)
GATGATTGTTCTCCCAGCTGATGAATTTTCGGGTTCGAGTAAACAAATTTTCCTAATCTTTCTGTTCAAGCGCCATCTAC	0.85 RPM ratio (pull-down/input)
GATGATTGTTCTCCCAGCTGATGAATTGGAGCCGTCGAGTAAACAAATTTTCCTAATCTTTCTGTTCAAGCGCCATCTAC	0.806 RPM ratio (pull-down/input)
GATGATTGTTCTCCCAGCTGATGAATTGCGACTTTCGAGTAAACAAATTTTCCTAATCTTTCTGTTCAAGCGCCATCTAC	1.26 RPM ratio (pull-down/input)
GATGATTGTTCTCCCAGCTGATGAATTACATCCCTCGAGTAAACAAATTTTCCTAATCTTTCTGTTCAAGCGCCATCTAC	1.11 RPM ratio (pull-down/input)
GATGATTGTTCTCCCAGCTGATGAATTTCACCGATCGAGTAAACAAATTTTCCTAATCTTTCTGTTCAAGCGCCATCTAC	0.876 RPM ratio (pull-down/input)

Sequence	binding signal
GATGATTGTTCTCCCAGCTGATGAATTTTGGCCCTCGAGTAAACAAATTTTCCTAATCTTTCTGTTCAAGCGCCATCTAC	0.825 RPM ratio (pull-down/input)
GATGATTGTTCTCCCAGCTGATGAATTTCCGCAATCGAGTAAACAAATTTTCCTAATCTTTCTGTTCAAGCGCCATCTAC	1.12 RPM ratio (pull-down/input)
GATGATTGTTCTCCCAGCTGATGAATTGCGCAGGTCGAGTAAACAAATTTTCCTAATCTTTCTGTTCAAGCGCCATCTAC	0.897 RPM ratio (pull-down/input)
GATGATTGTTCTCCCAGCTGATGAATTCGTCGGTTCGAGTAAACAAATTTTCCTAATCTTTCTGTTCAAGCGCCATCTAC	0.828 RPM ratio (pull-down/input)
GATGATTGTTCTCCCAGCTGATGAATTTGTGAGCTCGAGTAAACAAATTTTCCTAATCTTTCTGTTCAAGCGCCATCTAC	0.999 RPM ratio (pull-down/input)
GATGATTGTTCTCCCAGCTGATGAATTGCAGCCTTCGAGTAAACAAATTTTCCTAATCTTTCTGTTCAAGCGCCATCTAC	1.18 RPM ratio (pull-down/input)
GATGATTGTTCTCCCAGCTGATGAATTTGCTTTCTCGAGTAAACAAATTTTCCTAATCTTTCTGTTCAAGCGCCATCTAC	1.22 RPM ratio (pull-down/input)
GATGATTGTTCTCCCAGCTGATGAATTTTAATCTTCGAGTAAACAAATTTTCCTAATCTTTCTGTTCAAGCGCCATCTAC	0.977 RPM ratio (pull-down/input)
GATGATTGTTCTCCCAGCTGATGAATTGAACATATCGAGTAAACAAATTTTCCTAATCTTTCTGTTCAAGCGCCATCTAC	0.958 RPM ratio (pull-down/input)
GATGATTGTTCTCCCAGCTGATGAATTTGGCCCATCGAGTAAACAAATTTTCCTAATCTTTCTGTTCAAGCGCCATCTAC	0.925 RPM ratio (pull-down/input)
GATGATTGTTCTCCCAGCTGATGAATTGCTGCTTTCGAGTAAACAAATTTTCCTAATCTTTCTGTTCAAGCGCCATCTAC	1.39 RPM ratio (pull-down/input)
GATGATTGTTCTCCCAGCTGATGAATTGACTGCGTCGAGTAAACAAATTTTCCTAATCTTTCTGTTCAAGCGCCATCTAC	1.08 RPM ratio (pull-down/input)
GATGATTGTTCTCCCAGCTGATGAATTGGGGAAATCGAGTAAACAAATTTTCCTAATCTTTCTGTTCAAGCGCCATCTAC	0.984 RPM ratio (pull-down/input)
GATGATTGTTCTCCCAGCTGATGAATTCGCGCCTTCGAGTAAACAAATTTTCCTAATCTTTCTGTTCAAGCGCCATCTAC	0.921 RPM ratio (pull-down/input)
GATGATTGTTCTCCCAGCTGATGAATTATAGGCTTCGAGTAAACAAATTTTCCTAATCTTTCTGTTCAAGCGCCATCTAC	0.959 RPM ratio (pull-down/input)
GATGATTGTTCTCCCAGCTGATGAATTCCGTACTTCGAGTAAACAAATTTTCCTAATCTTTCTGTTCAAGCGCCATCTAC	0.878 RPM ratio (pull-down/input)
